# Measurements reported in the supplement of paper PMC4166925.
# ± gives the standard deviation of the averaged measurements. Whole data set: some 33,000 sequences, median “E-score (dimensionless, -0.5 to 0.5)” near -0.046, cut for the highest 2% near 0.36. Some of the results follow.
# System: T1, SpTbr T-box DNA-binding domain (GST fusion)
# T1 sequence: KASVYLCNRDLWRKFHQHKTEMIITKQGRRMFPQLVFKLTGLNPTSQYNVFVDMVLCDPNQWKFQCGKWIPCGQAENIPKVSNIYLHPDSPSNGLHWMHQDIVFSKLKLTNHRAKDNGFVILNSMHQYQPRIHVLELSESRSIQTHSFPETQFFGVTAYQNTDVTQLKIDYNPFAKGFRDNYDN
# Assay: PBM E-score of 8-mer (E-score (dimensionless, -0.5 to 0.5)); Tbr is Tbrain of the sea star Patiria miniata (Pm) or the sea urchin Strongylocentrotus purpuratus (Sp); higher = stronger binding preference; most listed sequences are background and not binding sites
# Conditions: the construct has about 5 more residues each side
# Method: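 Universal protein-binding microarray (Agilent AMADID 016060, 60-bp probes with a 35-bp variable region) incubated with 200 nM GST-fused Strongylocentrotus purpuratus Tbr T-box DNA-binding domain (residues 362-554) in PBS pH 7.5. Scored for every ungapped 8-mer (given with its reverse complement) as E-score (range -0.5 to 0.5; >0.45 counts as bound) and Z-score of median probe intensity. Two replicate arrays (datasets 1 and 2).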
# 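Also: protein at 200 nM in PBS on universal double-stranded arrays.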
row,Sequence,PBM E-score of 8-mer
1,CATATCAA,-0.0351 ± 0.016
2,GGCCCCAA,0.164 ± 0.04
3,CGCTAGGC,0.0913 ± 0.013
4,AAGATAGA,-0.291 ± 0.02
5,CAGGTATA,-0.104 ± 0.037
6,AGCCGAAT,-0.258 ± 0.018
7,AACGCTGG,0.0849 ± 0.037
8,ACGTATTC,-0.04 ± 0.031
9,CCTTATCG,0.0879 ± 0.03
10,GCTTCGCC,-0.0539 ± 0.012
11,AGGTACGC,-0.197 ± 0.01
12,CAGATTCG,-0.0135 ± 0.012
13,CCAGACCC,-0.0884 ± 0.053
14,ACCAGATG,-0.273 ± 0.016
15,CCGAGGGA,-0.253 ± 0.04
16,CGGGCCCC,-0.2465 ± 0.0019
17,GGTGACAC,0.4606 ± 0.0026
18,AGGCGCCA,0.3542 ± 0.0011
19,GGGACTCA,-0.308 ± 0.04
20,TCGCACGA,0.316 ± 0.0081
21,CCTGCTCC,-0.151 ± 0.018
22,AATCATGA,-0.0643 ± 0.051
23,TCAAGACA,0.0813 ± 0.021
24,AGTTTGGC,0.0081 ± 0.082
25,AATAAAAG,-0.057 ± 0.055

row,Sequence,PBM E-score of 8-mer
1,CCAAGTCA,0.0222 ± 0.019
2,AAAAACTT,-0.162 ± 0.046
3,CAAACAGG,-0.111 ± 0.019
4,CAGCGGGC,-0.172 ± 0.008
5,CAGCTCCA,-0.0379 ± 0.11
6,AATACAAG,-0.0808 ± 0.013
7,CCGCCCCC,-0.2141 ± 0.0011
8,CTCGAAAC,-0.0914 ± 0.049
9,GCTTCATA,-0.0722 ± 0.021
10,AAGCAAAA,-0.0778 ± 0.031
11,CACACGGG,0.147 ± 0.039
12,CTGTGGGA,0.105 ± 0.057
13,GCGATAGC,0.148 ± 0.022
14,TAGAGAAA,-0.244 ± 0.085
15,CTAATTTC,-0.118 ± 0.12
16,CAAATACA,-0.2 ± 0.042
17,ATGCTTGG,-0.225 ± 0.044
18,CTACGAGA,-0.0694 ± 0.018
19,ATCGATCC,0.0474 ± 0.016
20,CATGCGCG,0.221 ± 0.023
21,AAGAAGTC,-0.0241 ± 0.069
22,AGAAGAGA,-0.161 ± 0.024
23,ATTTTTCA,-0.113 ± 0.056
24,CCTCCCCG,-0.0418 ± 0.021
25,TAACCGCA,0.0176 ± 0.021

row,Sequence,PBM E-score of 8-mer
1,AGGAATTA,-0.188 ± 0.01
2,CGATCAAA,-0.0526 ± 0.07
3,GGGTTAAA,-0.213 ± 0.063
4,AATGGAGC,-0.269 ± 0.035
5,GGTCCGAC,-0.121 ± 0.093
6,CAGTTTCG,0.0306 ± 0.013
7,CTTCTGTA,-0.0583 ± 0.011
8,GCGACCGA,0.176 ± 0.006
9,AACTTCCC,-0.0915 ± 0.064
10,CGAGAAAG,0.117 ± 0.017
11,AAGTTTGC,0.0331 ± 0.095
12,CGAGCAGA,-0.0372 ± 0.047
13,GCCGCGGC,-0.115 ± 0.16
14,AACGCACA,0.0595 ± 0.0009
15,ATCATGGA,-0.315 ± 0.01
16,ATTTCCTC,-0.11 ± 0.013
17,CATAGCGG,-0.0417 ± 0.011
18,AACTCGTA,0.0283 ± 0.013
19,CGCTCTGC,0.0215 ± 0.0072
20,GAACTTCC,-0.172 ± 0.029
21,AGATATCA,0.145 ± 0.0086
22,TGGTATAA,-0.152 ± 0.0058
23,CATAACGC,0.21 ± 0.014
24,CATAGCGC,0.0682 ± 0.018
25,AAACGAAA,-0.116 ± 0.09

row,Sequence,PBM E-score of 8-mer
1,AAGCTCAG,-0.0825 ± 0.03
2,TAAGCTCA,-0.166 ± 0.12
3,CGTTTGAG,-0.201 ± 0.066
4,CCACACGA,0.0789 ± 0.12
5,AACGCGTT,0.146 ± 0.013
6,GTTCCCCA,-0.0542 ± 0.052
7,TAGGAACA,0.0112 ± 0.037
8,GATGTGAA,0.2 ± 0.0079
9,GATATACC,-0.0949 ± 0.018
10,AAACTTCC,-0.271 ± 0.033
11,CCATACCC,-0.247 ± 0.031
12,CGGAGACA,-0.0395 ± 0.021
13,CTGTGGGC,-0.0476 ± 0.071
14,GGCACCGA,-0.122 ± 0.1
15,CTGGGAGC,-0.0158 ± 0.037
16,AGGAGGGC,-0.173 ± 0.085
17,CCATTCCA,-0.17 ± 0.006
18,AACGCGTC,0.188 ± 0.014
19,AAAACATC,-0.0945 ± 0.036
20,CAACAGAG,-0.147 ± 0.059
21,GCGAAATA,0.227 ± 0.096
22,CGCGGTGA,0.0943 ± 0.12
23,GAAGCAAC,0.0738 ± 0.044
24,ACCCTTAT,-0.0625 ± 0.014
25,CCCCCGGA,-0.275 ± 0.0072

row,Sequence,PBM E-score of 8-mer
1,AATCGCGC,0.332 ± 0.01
2,AAAATTCG,-0.169 ± 0.082
3,AGCTCACC,0.00145 ± 0.071
4,AGTCCGAG,-0.0479 ± 0.0029
5,ACAACCAT,0.0868 ± 0.041
6,AGCACTGG,-0.0357 ± 0.007
7,CCACTGAG,-0.0982 ± 0.017
8,GATCCAAA,-0.0599 ± 0.059
9,TACTACTA,-0.272 ± 0.013
10,ACCGCATC,0.0471 ± 0.066
11,CGCGATTC,0.204 ± 0.046
12,AGATCACC,-0.0429 ± 0.029
13,ACACTCGT,0.279 ± 0.022
14,CTCATCTA,-0.272 ± 0.0055
15,TACCGGGA,-0.208 ± 0.0062
16,AGTACAGA,-0.0306 ± 0.028
17,AACATTAA,-0.152 ± 0.016
18,CGAATCAG,-0.0568 ± 0.05
19,ATACCTAG,-0.194 ± 0.018
20,AAGAGGAG,-0.00225 ± 0.017
21,AGTGTGTA,0.229 ± 0.018
22,GAGTTATC,0.0341 ± 0.075
23,CACCTTTA,0.414 ± 0.0042
24,GATTCAAA,-0.142 ± 0.062
25,CATCCCAC,0.158 ± 0.072

row,Sequence,PBM E-score of 8-mer
1,ACTAATGG,0.0172 ± 0.058
2,GATAGTGC,0.0259 ± 0.04
3,CGGCGCCA,0.14 ± 0.024
4,ACGCCCCG,0.184 ± 0.052
5,CCTGACAC,0.427 ± 0.01
6,CAGAGCCG,-0.0628 ± 0.02
7,AATGTCCA,-0.218 ± 0.051
8,CAAATTCA,0.215 ± 0.018
9,AACAAGCT,-0.156 ± 0.055
10,GTTTGGGA,-0.091 ± 0.036
11,CCACCCGC,0.105 ± 0.028
12,ACACCACT,0.269 ± 0.02
13,GTAATTGA,0.0382 ± 0.016
14,GATTTACC,-0.104 ± 0.03
15,CTAGCTAC,0.0263 ± 0.029
16,ATGGCAAT,0.0133 ± 0.11
17,GACCGGGA,-0.171 ± 0.049
18,GCATAGTA,-0.142 ± 0.068
19,AAGACGTG,0.092 ± 0.057
20,AGATTGAT,-0.186 ± 0.031
21,GCCGTCTA,-0.297 ± 0.041
22,CATGTTGA,0.122 ± 0.0077
23,CCATGCTA,-0.141 ± 0.0031
24,ATCTGTCG,0.236 ± 0.012
25,ATCCCTTA,-0.196 ± 0.0044

row,Sequence,PBM E-score of 8-mer
1,TCTTCAAA,-0.0718 ± 0.061
2,CACACCTG,0.479 ± 0.0072
3,ATAATGAG,-0.0254 ± 0.02
4,GCCTACCA,0.00846 ± 0.028
5,AGGCACGG,-0.0638 ± 0.014
6,CTCAGTTC,-0.00872 ± 0.076
7,AAACTGAT,0.00505 ± 0.0057
8,AAGTCTTA,-0.0637 ± 0.085
9,GTAACAAC,0.152 ± 0.039
10,GGCGTGCA,0.0836 ± 0.055
11,GCTAACAA,0.293 ± 0.03
12,GTGCATGA,-0.124 ± 0.085
13,ACCATAGA,-0.121 ± 0.04
14,CGTCGATC,0.0266 ± 0.0026
15,CTCATCGC,0.0778 ± 0.036
16,CTAACAAA,0.1482 ± 0.00042
17,TACACACA,0.255 ± 0.029
18,AACCAGTA,-0.0434 ± 0.0093
19,CGATGTTA,-0.0807 ± 0.0019
20,CCTGTGCG,0.125 ± 0.025
21,CAACTTAA,0.0683 ± 0.1
22,AGTAGAAA,-0.131 ± 0.051
